The results in this text go back to patent US20260174822A1 (SHATTUCK LABS, published 2026).

This assay has as its target human GLP-1 receptor on engineered CHO-K1 cells (human, UniProt P43220 24-463). Put plainly: flow cytometry on CHO-K1 cells expressing human GLP-1 receptor (Receptor Occupancy: CHOK1-hGLP1R Cells); secondary agent specific to the chimeric protein.

B1: GLP-1-RFRS-Fc-FGF19 chimeric protein (Fc fusion)
chain: HGEGTFTSDVSSYLEEQAAKEFIAWLVKGRGRFRS[letters of human IgG1 Fc with changes omitted]IEGRMDMRDSSPLVHYGWGDPIRLRHLYTSGPHGLSSCFLRIRADGVVDCARGQSAHSLLEIKAVALRTVAIKGVHSVRYLCMGADGKMQGLLQYSEEDCAFEEEIRPDGYNVYRSEKHRLPVSLSSAKQRQLYKNRGFLPLSHFLPMLPMVPEEPEDLRGHLESDMFSSPLETDSMDPFGLVTGLEAVRSPSFEK
notes: Tied by name only; Tested as purified protein and as culture supernatant of mmRNA-transfected CHO-K1 or HEK293 cells; also called GLP-1 (RSRF)-Fc-FGF19
Take B1: the binding result is “binds”.

B2: GLP-1-RFRS-Fc-FGF21 (RGE) chimeric protein (Fc fusion)
chain: HGEGTFTSDVSSYLEEQAAKEFIAWLVKGRGRFRS[letters of human IgG1 Fc with changes omitted]IEGRMDHPIPDSSPLLQFGGQVRQRYLYTDDAQQTEAHLEIREDGTVGGAADQSPESLLQLKALKPGVIQILGVKTSRFLCQRPDGALYGSLHFDPEACSFRERLLEDGYNVYQSEAHGLPLHLPGNKSPHRDPAPRGPARFLPLPGLPPALPEPPGILAPQPPDVGSSDPLSMVGGSQGRSPSYES
notes: Tied by name only; Tested as purified protein and as culture supernatant of mmRNA-transfected CHO-K1 or HEK293 cells; also called GLP-1 (RSRF)-Fc-FGF21 (RGE)
For the molecule B2, the “EC50 (read off the curve)” value was ~10 µg/mL.

What is called EC50 (read off the curve) is the midpoint of the concentration-response curve. A higher EC50 (read off the curve) goes with a need for much substance.
